Test results reported in PMC9911399, “Two distinct binding modes provide the RNA-binding protein RbFox with extraordinary sequence specificity”.
Substitutions are numbered along the chain they refer to; changes in the protein carry UniProt numbers. The list shows a part of the results.

T1: RBFOX1 RRM RbFoxmut (Fox-RRM*) (Homo sapiens, UniProt Q9NWB1 109-208, R118D;E147R;N151S;E152T)
T1 sequence: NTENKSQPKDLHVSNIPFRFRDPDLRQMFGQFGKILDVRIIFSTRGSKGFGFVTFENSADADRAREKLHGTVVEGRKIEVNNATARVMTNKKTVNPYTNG

B1: CACGCGU (DNA:RNA)
RNA: GGGAGACCGGAAUUCAGAUUGUCCCACGCGUUUAAAUCCCGUCGUAGCCACCA
DNA 1: CAATCTGAATTCCGGTCTCCC
DNA 2: TGGTGGCTACGACGGGATT
B2: GCACAGA (DNA:RNA)
RNA: B1 RNA with C25G, A26C, C27A, G28C, C29A, U31A
DNA 1: CAATCTGAATTCCGGTCTCCC
DNA 2: TGGTGGCTACGACGGGATT
B3: CCCUGCG (DNA:RNA)
RNA: B1 RNA with A26C, G28U, C29G, G30C, U31G
DNA 1: CAATCTGAATTCCGGTCTCCC
DNA 2: TGGTGGCTACGACGGGATT
B4: GGUAGCU (DNA:RNA)
RNA: B1 RNA with C25G, A26G, C27U, G28A, C29G, G30C
DNA 1: CAATCTGAATTCCGGTCTCCC
DNA 2: TGGTGGCTACGACGGGATT
B5: GGGAGGU (DNA:RNA)
RNA: B1 RNA with C25G, A26G, C27G, G28A, C29G
DNA 1: CAATCTGAATTCCGGTCTCCC
DNA 2: TGGTGGCTACGACGGGATT
B6: UUCGAGU (DNA:RNA)
RNA: B1 RNA with C25U, A26U, C29A
DNA 1: CAATCTGAATTCCGGTCTCCC
DNA 2: TGGTGGCTACGACGGGATT
B7: CUACAUC (DNA:RNA)
RNA: B1 RNA with A26U, C27A, G28C, C29A, G30U, U31C
DNA 1: CAATCTGAATTCCGGTCTCCC
DNA 2: TGGTGGCTACGACGGGATT
B8: GAGUUAA (DNA:RNA)
RNA: B1 RNA with C25G, C27G, G28U, C29U, G30A, U31A
DNA 1: CAATCTGAATTCCGGTCTCCC
DNA 2: TGGTGGCTACGACGGGATT
B9: CGCGCUC (DNA:RNA)
RNA: B1 RNA with A26G, G30U, U31C
DNA 1: CAATCTGAATTCCGGTCTCCC
DNA 2: TGGTGGCTACGACGGGATT
B10: CGAGGGC (DNA:RNA)
RNA: B1 RNA with A26G, C27A, C29G, U31C
DNA 1: CAATCTGAATTCCGGTCTCCC
DNA 2: TGGTGGCTACGACGGGATT
B11: CAAUGUA (DNA:RNA)
RNA: B1 RNA with C27A, G28U, C29G, G30U, U31A
DNA 1: CAATCTGAATTCCGGTCTCCC
DNA 2: TGGTGGCTACGACGGGATT
B12: UCCUGUA (DNA:RNA)
RNA: B1 RNA with C25U, A26C, G28U, C29G, G30U, U31A
DNA 1: CAATCTGAATTCCGGTCTCCC
DNA 2: TGGTGGCTACGACGGGATT
B13: AUAGCUU (DNA:RNA)
RNA: B1 RNA with C25A, A26U, C27A, G30U
DNA 1: CAATCTGAATTCCGGTCTCCC
DNA 2: TGGTGGCTACGACGGGATT
B14: GGGAAGG (DNA:RNA)
RNA: B1 RNA with C25G, A26G, C27G, G28A, C29A, U31G
DNA 1: CAATCTGAATTCCGGTCTCCC
DNA 2: TGGTGGCTACGACGGGATT
B15: ACUUGAC (DNA:RNA)
RNA: GGGAGACCGGAAUUCAGAUUGUCCACUUGACUUAAAUCCCGUCGUAGCCACCA
DNA 1: CAATCTGAATTCCGGTCTCCC
DNA 2: TGGTGGCTACGACGGGATT
B16: ACACUCC (DNA:RNA)
RNA: B15 RNA with U27A, U28C, G29U, A30C
DNA 1: CAATCTGAATTCCGGTCTCCC
DNA 2: TGGTGGCTACGACGGGATT
B17: UUUCGGG (DNA:RNA)
RNA: B15 RNA with A25U, C26U, U28C, A30G, C31G
DNA 1: CAATCTGAATTCCGGTCTCCC
DNA 2: TGGTGGCTACGACGGGATT
B18: CGCACGU (DNA:RNA)
RNA: B1 RNA with A26G, G28A
DNA 1: CAATCTGAATTCCGGTCTCCC
DNA 2: TGGTGGCTACGACGGGATT
B19: GAAACAC (DNA:RNA)
RNA: B15 RNA with A25G, C26A, U27A, U28A, G29C
DNA 1: CAATCTGAATTCCGGTCTCCC
DNA 2: TGGTGGCTACGACGGGATT
B20: CGGUACA (DNA:RNA)
RNA: B15 RNA with A25C, C26G, U27G, G29A, A30C, C31A
DNA 1: CAATCTGAATTCCGGTCTCCC
DNA 2: TGGTGGCTACGACGGGATT
B21: GACUGCU (DNA:RNA)
RNA: B1 RNA with C25G, G28U, C29G, G30C
DNA 1: CAATCTGAATTCCGGTCTCCC
DNA 2: TGGTGGCTACGACGGGATT
B22: CCUCUAG (DNA:RNA)
RNA: B15 RNA with A25C, U28C, G29U, C31G
DNA 1: CAATCTGAATTCCGGTCTCCC
DNA 2: TGGTGGCTACGACGGGATT
B23: UCAUAAG (DNA:RNA)
RNA: B15 RNA with A25U, U27A, G29A, C31G
DNA 1: CAATCTGAATTCCGGTCTCCC
DNA 2: TGGTGGCTACGACGGGATT
B24: UAACUCU (DNA:RNA)
RNA: B1 RNA with C25U, C27A, G28C, C29U, G30C
DNA 1: CAATCTGAATTCCGGTCTCCC
DNA 2: TGGTGGCTACGACGGGATT
B25: CGCCUAG (DNA:RNA)
RNA: B1 RNA with A26G, G28C, C29U, G30A, U31G
DNA 1: CAATCTGAATTCCGGTCTCCC
DNA 2: TGGTGGCTACGACGGGATT
B26: UCGACCG (DNA:RNA)
RNA: B15 RNA with A25U, U27G, U28A, G29C, A30C, C31G
DNA 1: CAATCTGAATTCCGGTCTCCC
DNA 2: TGGTGGCTACGACGGGATT
B27: UAGCCUU (DNA:RNA)
RNA: B1 RNA with C25U, C27G, G28C, G30U
DNA 1: CAATCTGAATTCCGGTCTCCC
DNA 2: TGGTGGCTACGACGGGATT
B28: AAGCAGU (DNA:RNA)
RNA: B1 RNA with C25A, C27G, G28C, C29A
DNA 1: CAATCTGAATTCCGGTCTCCC
DNA 2: TGGTGGCTACGACGGGATT
B29: GCGGGCU (DNA:RNA)
RNA: B15 RNA with A25G, U27G, U28G, A30C, C31U
DNA 1: CAATCTGAATTCCGGTCTCCC
DNA 2: TGGTGGCTACGACGGGATT
B30: AAAAGUA (DNA:RNA)
RNA: B15 RNA with C26A, U27A, U28A, A30U, C31A
DNA 1: CAATCTGAATTCCGGTCTCCC
DNA 2: TGGTGGCTACGACGGGATT
B31: UGCUGUC (DNA:RNA)
RNA: B15 RNA with A25U, C26G, U27C, A30U
DNA 1: CAATCTGAATTCCGGTCTCCC
DNA 2: TGGTGGCTACGACGGGATT

Each binder was assayed against T1, RBFOX1 RRM RbFoxmut (Fox-RRM*) (assay: EMSA; HiTS-Eq, 1 nM pool, 10 min; buffer printed only for the single-RNA assays: 10 mM Tris pH 7.5, 150 mM NaCl, 3.4 mM EDTA, 0.001% NP-40, 30 C). Conditions: tags: His6 N-terminal (pET28a); label: 5' 32P.
Outline: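 Purified wild-type or mutant RbFox RRM at increasing concentrations was equilibrated with 1 nM of 5′-radiolabelled RNA carrying 7 randomized nucleotides for 10 min in 50 µL. Unbound RNA was separated by 8% native PAGE and sequenced. Relative association constants came from read-count changes of each RNA species compared with the control reaction, normalised to the cognate motif.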

**Q.** Which binding signal does the source give for B1 here?
**A.** 0.131 KA relative to UGCAUGU

**Q.** For B2, which binding signal is on record?
**A.** 0.0953 KA relative to UGCAUGU

**Q.** How did the binding signal turn out when B3 was run?
**A.** 0.123 KA relative to UGCAUGU

**Q.** How did the binding signal turn out when B4 was run?
**A.** 0.0558 KA relative to UGCAUGU

**Q.** Which binding signal does the source give for B5 here?
**A.** 0.0973 KA relative to UGCAUGU

**Q.** How did the binding signal turn out when B6 was run?
**A.** 0.133 KA relative to UGCAUGU

**Q.** With B7 as the binder, how does the binding signal read?
**A.** 0.0565 KA relative to UGCAUGU

**Q.** For B8, which binding signal is on record?
**A.** 0.0978 KA relative to UGCAUGU

**Q.** For B9, which binding signal is on record?
**A.** 0.0689 KA relative to UGCAUGU

**Q.** How did the binding signal turn out when B10 was run?
**A.** 0.0676 KA relative to UGCAUGU

**Q.** For B11, which binding signal is on record?
**A.** 0.134 KA relative to UGCAUGU

**Q.** For B12, which binding signal is on record?
**A.** 0.152 KA relative to UGCAUGU

**Q.** Which binding signal does the source give for B13 here?
**A.** 0.0942 KA relative to UGCAUGU

**Q.** B14 was tested. Which binding signal did it give?
**A.** 0.0684 KA relative to UGCAUGU

**Q.** Which binding signal does the source give for B15 here?
**A.** 0.151 KA relative to UGCAUGU

**Q.** For B16, which binding signal is on record?
**A.** 0.0902 KA relative to UGCAUGU

**Q.** Which binding signal does the source give for B17 here?
**A.** 0.0763 KA relative to UGCAUGU

**Q.** B18 was tested. Which binding signal did it give?
**A.** 0.241 KA relative to UGCAUGU

**Q.** B19 was tested. Which binding signal did it give?
**A.** 0.0537 KA relative to UGCAUGU

**Q.** How did the binding signal turn out when B20 was run?
**A.** 0.0855 KA relative to UGCAUGU

**Q.** For B21, which binding signal is on record?
**A.** 0.124 KA relative to UGCAUGU

**Q.** For B22, which binding signal is on record?
**A.** 0.112 KA relative to UGCAUGU

**Q.** For B23, which binding signal is on record?
**A.** 0.119 KA relative to UGCAUGU

**Q.** For B24, which binding signal is on record?
**A.** 0.0488 KA relative to UGCAUGU

**Q.** With B25 as the binder, how does the binding signal read?
**A.** 0.14 KA relative to UGCAUGU

**Q.** Which binding signal does the source give for B26 here?
**A.** 0.103 KA relative to UGCAUGU

**Q.** For B27, which binding signal is on record?
**A.** 0.0765 KA relative to UGCAUGU

**Q.** B28 was tested. Which binding signal did it give?
**A.** 0.0727 KA relative to UGCAUGU

**Q.** Which binding signal does the source give for B29 here?
**A.** 0.098 KA relative to UGCAUGU

**Q.** For B30, which binding signal is on record?
**A.** 0.147 KA relative to UGCAUGU

**Q.** B31 was tested. Which binding signal did it give?
**A.** 0.331 KA relative to UGCAUGU
